{"source": "PubChem BioAssay AID485294", "about": "(National Center for Advancing Translational Sciences (NCATS), 2010)", "note": "Hit rate of the full screen: of about 370,000 compounds, about 150 (0.041%) were called active. The inconclusive results got no clear call from the source; some entries with a clear call stand among them for comparison. The call rests on the fitted dose curve; in most records, active means well fitted inhibition curve with a large enough effect; inconclusive means small, poorly fitted or top-dose-only effect; inactive means flat fitted curve, though single readings scatter. Potencies of inconclusive entries are left out as doubtful fits. Potency means the concentration at half of the fitted maximal effect; tags describe the fitted curve by direction and shape.", "data": [{"biological_target": "Beta-lactamase (Escherichia coli (strain K12)) (UniProt P00811)", "sequence (P00811 whole entry, looked up)": "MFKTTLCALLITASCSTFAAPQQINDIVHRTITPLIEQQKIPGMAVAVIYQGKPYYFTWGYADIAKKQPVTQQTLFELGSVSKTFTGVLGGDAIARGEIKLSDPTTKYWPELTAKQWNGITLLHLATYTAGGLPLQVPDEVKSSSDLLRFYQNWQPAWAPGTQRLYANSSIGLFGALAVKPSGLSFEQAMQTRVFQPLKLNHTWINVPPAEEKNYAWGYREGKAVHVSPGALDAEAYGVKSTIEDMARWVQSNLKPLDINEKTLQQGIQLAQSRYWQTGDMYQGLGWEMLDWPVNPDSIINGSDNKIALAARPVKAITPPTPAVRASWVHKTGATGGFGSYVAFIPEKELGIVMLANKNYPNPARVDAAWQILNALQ", "assay": "qHTS Inhibitors of AmpC Beta-Lactamase (assay with detergent); further: nearly all actives have a fitted effect of over 25% in size;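 on activity change, negative = inhibition: 0% = no-compound wells and -100% = no-enzyme wells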", "conditions": "AmpC hydrolysis of nitrocefin, absorbance 480 nm, 0.01% Triton; activity change, negative = inhibition: at 114 µM (top of the series)", "how_it_was_run": "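20 mM phosphate pH 7.0 + 0.01% (detergent screen) or 0.0001% Triton X-100; 5.3 nM AmpC reagent; cpd preinc 15 min RT; nitrocefin (800 uM stock) to start; A480 q20 s × 4 min; Activity was normalised to no-enzyme and no-compound control wells.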", "values": [{"smiles": "CCOc1ccccc1CNC(=O)c1cnn(-c2ccc(C)cc2)c1-n1cccc1", "activity change, negative = inhibition": "inactive: -8.11%"}, {"smiles": "COc1ccc(Cn2c(C(=O)O)c(CNCc3ccco3)c3ccc(C)cc32)cc1", "activity change, negative = inhibition": "inactive: 13.5%"}, {"smiles": "CCOC(=O)C1CCN(C(=O)CS(=O)Cc2nc(-c3ccc(C)cc3)oc2C)CC1", "note": "(stereo not given)", "Potency": "inconclusive [inhibitor, full curve, poor fit]"}, {"smiles": "Cc1ccc(-c2nnn(CC(=O)N(CC(=O)NC3CCCCC3)c3ccc(F)c(Cl)c3)n2)o1", "Potency": "inconclusive [inhibitor, full curve]"}, {"smiles": "Fc1ccc(NC(=S)N2N=CCC2c2ccccc2)cc1", "note": "(stereo not given)", "activity change, negative = inhibition": "inactive: -4.82%"}, {"smiles": "COc1ccc(C(CNC(=O)C(C)Oc2ccc(Br)cc2)N2CCCCC2)cc1", "note": "(stereo not given)", "Potency": "inconclusive [inhibitor, full curve, poor fit]"}, {"smiles": "Cc1cc(/C=N/NC(=O)c2ccncc2)c(C)n1-c1ccccc1", "Potency": "inconclusive [inhibitor, full curve, poor fit]"}, {"smiles": "COc1cc(OC)c(NC(=O)C2=C(C)C(=O)OC23CCN(C(C)=O)CC3)cc1Cl", "activity change, negative = inhibition": "inactive: 6.56%"}, {"smiles": "COc1cccc2c1O/C(=N\\O)C(C(=O)Nc1ccc(C)cc1)C2", "note": "(stereo not given)", "activity change, negative = inhibition": "inactive: 2.41%"}, {"smiles": "COc1ccc(S(=O)(=O)N(C)CC(=O)NCc2ccccc2)cc1OC", "activity change, negative = inhibition": "inactive: 1.82%"}, {"smiles": "Cc1ccc2c(CC(=O)Nc3nc(C)cs3)coc2c1", "Potency": "inconclusive [inhibitor, partial curve, poor fit]"}, {"smiles": "Cc1ccc(C(=O)OCC(=O)NCCc2ccccc2)cc1C", "Potency": "inconclusive [inhibitor, full curve, poor fit]"}, {"smiles": "CCc1ccc(NC(=S)NC2CCN(Cc3ccccc3)CC2)cc1", "Potency": "inconclusive [inhibitor, full curve]"}, {"smiles": "C=CCSc1nnc(-c2cccnc2)o1", "activity change, negative = inhibition": "inactive: -7.38%"}, {"smiles": "COC(=O)C1(C(F)(F)F)N=C(C(F)(F)F)Nc2ccc(Cl)cc21", "note": "(stereo not given)", "Potency": "inconclusive [inhibitor, single point]"}, {"smiles": "Cc1nn(CCC(=O)Nc2ccc(Cl)cc2)c(C)c1S(=O)(=O)N1CCCCC1", "activity change, negative = inhibition": "inactive: -4.7%"}, {"smiles": "COc1ccc(-c2cc(C(F)(F)F)n3nc(C(=O)O)cc3n2)cc1OC", "Potency": "inconclusive [inhibitor, full curve, poor fit]"}, {"smiles": "O=C(NNc1ccccc1[N+](=O)[O-])Nc1ccccc1", "activity change, negative = inhibition": "inactive: 3.48%"}, {"smiles": "CCOc1ccc(NC(=O)CN(C)C(=O)c2csc3c2CCCC3)cc1OCC", "Potency": "inconclusive [inhibitor, partial curve, poor fit]"}, {"smiles": "CCc1ccccc1N1C(=O)/C(=C/c2ccc(N3CCN(C)CC3)o2)C(=O)NC1=S", "Potency": "inconclusive [inhibitor, partial curve]"}]}]}
